Experimental findings from PMC4336329 (PLoS ONE, 2015) are described below.

Hit rate of the full screen: of about 310,000 compounds, about 14,000 (4.5%) showed an effect of 50% or more. The effect is printed as a negative number. The list shows a part of the results.
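Also: peak tail current of the secondary pulse compared with the same well before compound.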

The target in this test is human ether-à-go-go-related gene (hERG) potassium channel (human, UniProt Q12809). Put plainly: primary screen, population patch clamp on CHO cells stably expressing hERG.
Sequence of human ether-à-go-go-related gene (hERG) potassium channel (Q12809 whole entry, looked up): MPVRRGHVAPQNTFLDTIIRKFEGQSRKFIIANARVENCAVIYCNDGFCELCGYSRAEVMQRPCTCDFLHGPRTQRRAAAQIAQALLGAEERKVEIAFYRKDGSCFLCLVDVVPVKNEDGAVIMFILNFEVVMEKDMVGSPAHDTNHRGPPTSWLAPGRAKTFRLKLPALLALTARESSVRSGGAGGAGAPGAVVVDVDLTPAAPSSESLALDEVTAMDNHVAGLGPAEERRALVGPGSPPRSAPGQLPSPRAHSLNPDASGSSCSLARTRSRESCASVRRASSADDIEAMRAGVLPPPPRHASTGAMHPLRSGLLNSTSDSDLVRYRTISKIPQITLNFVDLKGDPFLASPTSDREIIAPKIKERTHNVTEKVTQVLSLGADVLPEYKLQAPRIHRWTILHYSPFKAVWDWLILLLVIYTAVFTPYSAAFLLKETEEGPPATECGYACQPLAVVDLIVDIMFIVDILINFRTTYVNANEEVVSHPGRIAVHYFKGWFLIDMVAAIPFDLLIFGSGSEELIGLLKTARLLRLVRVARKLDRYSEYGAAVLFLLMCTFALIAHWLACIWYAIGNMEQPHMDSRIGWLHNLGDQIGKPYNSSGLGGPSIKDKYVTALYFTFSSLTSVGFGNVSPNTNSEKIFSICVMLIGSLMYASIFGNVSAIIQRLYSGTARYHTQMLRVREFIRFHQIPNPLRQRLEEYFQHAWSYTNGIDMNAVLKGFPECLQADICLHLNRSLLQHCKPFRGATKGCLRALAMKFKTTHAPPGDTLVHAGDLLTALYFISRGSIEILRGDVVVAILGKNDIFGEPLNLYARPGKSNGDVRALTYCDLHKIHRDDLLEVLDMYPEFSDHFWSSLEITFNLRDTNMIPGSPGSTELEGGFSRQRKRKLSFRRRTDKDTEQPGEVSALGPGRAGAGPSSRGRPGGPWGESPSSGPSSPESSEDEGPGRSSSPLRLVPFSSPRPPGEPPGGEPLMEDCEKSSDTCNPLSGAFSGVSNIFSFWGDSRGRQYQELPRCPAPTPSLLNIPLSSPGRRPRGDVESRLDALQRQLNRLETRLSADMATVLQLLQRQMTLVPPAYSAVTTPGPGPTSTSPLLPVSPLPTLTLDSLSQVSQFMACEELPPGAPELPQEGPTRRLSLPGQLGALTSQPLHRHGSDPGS
For the compound `CCCCn1c(N)c(N(CCOC)C(=O)CSc2nnc(-c3ccc(C(C)(C)C)cc3)n2N)c(=O)[nH]c1=O`, the “hERG current change (%, negative = inhibition) at 10uM” value was 2.07%. On to `CCCn1c(SCC(=O)Nc2nonc2C)nnc1-c1ccoc1C`, for which the “hERG current change (%, negative = inhibition) at 10uM” value is on record as -8.43%. Take `O=C(CNC(=S)NC(=O)c1ccccc1Br)c1ccccc1`: the “hERG current change (%, negative = inhibition) at 10uM” value was determined as 8.94%. The same measure for `CCCCCCn1cc(C(=O)O)c(=O)c2cc(F)c(N3CCCCC3)cc21`: 5.7%.

`OCC1(Cc2cccc(F)c2)CCN(Cc2ccc3cccc(F)c3n2)CC1`: the “hERG current change (%, negative = inhibition) at 10uM” value is on record as -64.7%. The same measure for `O=C(NCCc1ccccn1)c1ccc(OC2CCN(CCc3ccccc3)CC2)cc1`: -41.9%; for `NS(=O)(=O)c1ccc(NCc2cc(Cl)ccc2OCc2ccccc2F)cc1`: -2.13%. Take `O=C1CC(c2ccncc2)c2cc3c(cc2N1)OCO3` (centres unmarked): the “hERG current change (%, negative = inhibition) at 10uM” value turned out to be 14.3%. The figure for `CCN(CC)S(=O)(=O)c1ccc(C(=O)NCC2(N3CCOCC3)CCCCC2)cc1` is -67.3%.

Take `Oc1ccc(CCC2CCCCN2Cc2nc(C3CC3)no2)cc1` (centres unmarked): the “hERG current change (%, negative = inhibition) at 10uM” value is on record as -12.7%. The same measure for `COc1ccccc1N1C(=S)NC2CS(=O)(=O)CC21` (centres unmarked): 24.4%; for `COc1ccc(CN(CC(=O)NCC2CCCO2)C(=O)CNS(=O)(=O)c2ccccc2)cc1` (centres unmarked): 6.07%; for `O=C(NCC(c1ccco1)N1CCCC1)c1cccc(S(=O)(=O)Nc2ccc(F)cc2)c1` (centres unmarked): -36.5%.

For `Cc1c(-n2c(SCC(N)=O)nc3ccccc3c2=O)c(=O)n(-c2ccccc2)n1C`, the “hERG current change (%, negative = inhibition) at 10uM” value came out at 36.4%. On to `Cc1nnc(SCC(=O)Nc2cccc(S(N)(=O)=O)c2)n1-c1ccccc1`, for which the “hERG current change (%, negative = inhibition) at 10uM” value is -0.312%. Turning to `N#CC1(NC(=O)CSc2nc3ncc(Cl)cc3[nH]2)CCCCC1`, the “hERG current change (%, negative = inhibition) at 10uM” value came to 9.79%. The same measure for `O=C(c1ccc2c(c1)OCO2)N1CCN(c2ccc(Cl)cc2)CC1`: -33.3%. The same measure for `C=CCN=C1SC(C)(C)C(=O)N1S(=O)(=O)c1ccc(C)cc1`: -5.05%; for `O=C(O)c1cc(-c2ccc(/C=N/N3C(=O)C4C5C=CC(CC5)C4C3=O)o2)ccc1Cl` (centres unmarked): 21.9%.

As to `O=C(/C=C/c1ccc(Cl)cc1)N1CCN(c2c(Cl)cccc2[N+](=O)[O-])CC1`, the “hERG current change (%, negative = inhibition) at 10uM” value is on record as -58%. The same measure for `O=C(NCCN1CCc2ccccc2C1)Nc1ccc([N+](=O)[O-])cc1`: -70.1%; for `COc1cccc(NC(=O)c2ccccc2-c2ccccc2)c1`: -5.19%. The figure for `COc1ccc(N2C(=O)c3ccccc3NC2c2ccc(OC)c(CN3CCOCC3)c2)cc1` (centres unmarked) is -7.62%; for `CC(C)OCCCNC(=O)CN1C(=O)c2cccc3cccc1c23` it is 12.4%; for `COC(=O)c1ccccc1NC(=O)C1CCN(C(=O)Cc2ccccc2)CC1` it is -34%. The figure for `CC(C)(C)NC(=O)Cn1c(SCC(=O)NC2CCCC2)nc2ccccc21` is 7.18%; for `COc1ccc(Cl)cc1NC(=O)NN1CCN(C)CC1` it is -41.8%.

As to `CC1=C/C(=N\NC(=S)NCCc2ccccc2)CC(C)(C)C1`, the “hERG current change (%, negative = inhibition) at 10uM” value was -4.83%. The figure for `CCCn1c(=O)c2ccccc2n2c(Sc3nnnn3-c3ccccc3)nnc12` is -23.5%; for `COc1ccc(NC(=O)c2ccccn2)cc1OC` it is 3.32%.

With `COc1ccc(OC)c(S(=O)(=O)N2CCC(C(=O)NC3CC3)CC2)c1`, the “hERG current change (%, negative = inhibition) at 10uM” value was 13%.

Consider `O=C(Nc1cc2c3c(c1)CC(=O)N3CCC2)c1ccccc1C(F)(F)F`, for which the “hERG current change (%, negative = inhibition) at 10uM” value is given as -2.1%. The figure for `COc1cc(OC)cc(C(=O)Nc2ccc(-n3cnnn3)c(C)c2)c1` is -8.74%; for `O=[N+]([O-])c1cccc(CN2CC=C(c3ccc(F)cc3)CC2)c1` it is -39.2%. `O=[N+]([O-])c1ccc2nc(-c3ccc(Cl)cc3)[nH]c2c1`: the “hERG current change (%, negative = inhibition) at 10uM” value came out at 8.39%.

Regarding `Cc1oc(-c2cc(F)ccc2F)nc1CN(C)Cc1ccc2nccnc2c1`, the “hERG current change (%, negative = inhibition) at 10uM” value is listed as -21.8%.

In the case of `CC(=O)Nc1ccccc1C(=O)OCc1ccc(C(=O)c2ccccc2)cc1`, the “hERG current change (%, negative = inhibition) at 10uM” value was 5.33%.

Regarding `Brc1ccccc1-c1nnc(CSc2nnc3sc4ccccc4n23)o1`, the “hERG current change (%, negative = inhibition) at 10uM” value is recorded as -28.9%.

On to `Cc1nonc1NC(=O)CSc1nnc(-c2ccoc2C)n1C`, for which the “hERG current change (%, negative = inhibition) at 10uM” value worked out at 4.89%. The figure for `COc1cccc(NC(=O)CN(C)C(=O)c2ccccc2OCC(=O)Nc2cccc(C(F)(F)F)c2)c1` is -1.61%. The same measure for `COC(=O)c1ccc(C2CC(=O)NC3=C2C(=O)CCC3)cc1` (centres unmarked): 5.97%; for `O=C(CCn1c(=S)[nH]c2ccccc2c1=O)NCCCN1CCCC1=O`: -22.9%; for `COc1ccccc1N1CCN(C2CCCN(C(=O)c3snnc3C)C2)CC1` (centres unmarked): -1.76%.

In the case of `CN1CCC(=O)N([C@H](CSc2ccccc2)Cc2ccccc2)CC1`, the “hERG current change (%, negative = inhibition) at 10uM” value is recorded as -45.8%.
